Experimental data: paper PMC4336329 (PLoS ONE, 2015)
The whole screen tested about 310,000 compounds, of which about 2,200 (0.71%) showed an effect of 50% or more. Effects have a minus sign here. The list shows a part of the results.

What follows are compounds tested against human ether-à-go-go-related gene (hERG) potassium channel (human, UniProt Q12809) (assay: primary screen, population patch clamp on CHO cells stably expressing hERG).
Chain of human ether-à-go-go-related gene (hERG) potassium channel (Q12809 whole entry, looked up): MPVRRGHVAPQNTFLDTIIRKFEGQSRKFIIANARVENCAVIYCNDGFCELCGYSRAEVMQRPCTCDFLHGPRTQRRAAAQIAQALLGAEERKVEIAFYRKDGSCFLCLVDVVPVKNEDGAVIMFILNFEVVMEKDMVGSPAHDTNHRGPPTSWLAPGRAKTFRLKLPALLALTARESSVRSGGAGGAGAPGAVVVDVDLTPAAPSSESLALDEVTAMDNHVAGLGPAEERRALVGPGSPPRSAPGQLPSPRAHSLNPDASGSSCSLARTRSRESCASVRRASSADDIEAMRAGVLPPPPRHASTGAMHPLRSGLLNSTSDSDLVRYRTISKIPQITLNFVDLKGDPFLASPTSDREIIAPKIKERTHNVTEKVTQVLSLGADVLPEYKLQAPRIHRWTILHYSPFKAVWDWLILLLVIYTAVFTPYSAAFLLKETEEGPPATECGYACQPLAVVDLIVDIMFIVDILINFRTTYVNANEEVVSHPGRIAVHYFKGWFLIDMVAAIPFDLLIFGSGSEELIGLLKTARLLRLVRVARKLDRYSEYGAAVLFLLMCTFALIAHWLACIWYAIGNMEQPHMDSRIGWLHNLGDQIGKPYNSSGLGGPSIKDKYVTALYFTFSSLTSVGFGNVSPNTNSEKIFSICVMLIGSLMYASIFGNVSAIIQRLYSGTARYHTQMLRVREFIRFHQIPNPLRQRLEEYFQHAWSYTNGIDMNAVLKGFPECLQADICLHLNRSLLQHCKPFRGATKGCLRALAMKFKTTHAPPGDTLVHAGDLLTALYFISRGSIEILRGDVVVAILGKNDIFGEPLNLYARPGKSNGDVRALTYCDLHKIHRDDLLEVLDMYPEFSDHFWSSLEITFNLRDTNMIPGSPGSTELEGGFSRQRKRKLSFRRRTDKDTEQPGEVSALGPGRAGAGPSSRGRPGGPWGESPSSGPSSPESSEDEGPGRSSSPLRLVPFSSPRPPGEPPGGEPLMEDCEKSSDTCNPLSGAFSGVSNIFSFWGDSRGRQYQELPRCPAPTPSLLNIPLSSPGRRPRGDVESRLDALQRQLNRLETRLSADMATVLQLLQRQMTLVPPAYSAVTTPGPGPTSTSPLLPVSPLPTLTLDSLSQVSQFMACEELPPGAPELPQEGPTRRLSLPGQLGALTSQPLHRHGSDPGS
In the case of `CS(=O)(=O)c1ccc2nc(NC(=O)Nc3cccc(Cl)c3)sc2c1`, the “hERG current change (%, negative = inhibition) at 1uM” value is reported as 4.79%. With `O=C(c1ccc(Cl)c(Cl)c1)c1cnc(Nc2ccccc2)s1` the “hERG current change (%, negative = inhibition) at 1uM” value was 18%. `O=C(Cn1c(-c2ccccc2Cl)nc2ccccc21)Nc1cccc(Cl)c1` was tested, and the “hERG current change (%, negative = inhibition) at 1uM” value was 9.15%. `C=Cn1cc[n+](CC(=O)c2ccc(-c3ccccc3)cc2)c1.[Br-]` was tested, and the “hERG current change (%, negative = inhibition) at 1uM” value was 11.3%. `Cc1ccnc(S(=O)(=O)Cc2ccc([N+](=O)[O-])cc2)n1` was tested, and the “hERG current change (%, negative = inhibition) at 1uM” value was 17.4%. For `CCO[C@@H]1OC(C(=O)NC2CC2)=C[C@H](c2csc3ccccc23)[C@H]1CCCO`, the “hERG current change (%, negative = inhibition) at 1uM” value was 1.65%. With `CN(C(=O)CN1C(=O)S/C(=C\c2cccc(Cl)c2)C1=O)C1CCS(=O)(=O)C1` (stereo not shown) the “hERG current change (%, negative = inhibition) at 1uM” value was -3.42%. `COc1ccc(C(=O)[C@H]2[C@H]3C(=O)N(c4ccc(C)cc4)C(=O)[C@H]3C3C=CC=NN32)cc1` (stereo partly shown) was tested, and the “hERG current change (%, negative = inhibition) at 1uM” value was -6.28%. For `CN(C)S(=O)(=O)c1cccc(C(=O)N2CCN(Cc3ccccc3)CC2)c1`, the “hERG current change (%, negative = inhibition) at 1uM” value was 7.04%. With `CCOCCCNC(=O)c1ccc(CS(=O)(=O)c2cccc(C(F)(F)F)c2)o1` the “hERG current change (%, negative = inhibition) at 1uM” value was 13.5%. With `Cc1cccc(NC(=O)Nc2ccc(C#N)cc2)n1` the “hERG current change (%, negative = inhibition) at 1uM” value was 8.9%. For `COC(=O)c1cn(NC(=O)c2ccc(OC)c(OC)c2)c(=O)c2ccccc12`, the “hERG current change (%, negative = inhibition) at 1uM” value was 8.75%. For `CC1=C(C)CC2C(C1)C(=O)c1ccc(Br)cc1S2(=O)=O` (stereo not shown), the “hERG current change (%, negative = inhibition) at 1uM” value was 3.11%. `COc1ccc(C2COC(=O)C2=N)c(NC(=O)c2ccc(Cl)cc2)c1` (stereo not shown) was tested, and the “hERG current change (%, negative = inhibition) at 1uM” value was -4.14%. With `CCOC(=O)N1CCN(C(=O)COc2ccc3oc4c(c3c2)CCCC4)CC1` the “hERG current change (%, negative = inhibition) at 1uM” value was -14%. `COc1ccc(-c2c(C)oc3c(CN4CCOCC4)c(O)ccc3c2=O)cc1` was tested, and the “hERG current change (%, negative = inhibition) at 1uM” value was 8.15%. In the case of `Cc1cnc(NC(=O)CSc2nnc3ncccn23)s1`, the “hERG current change (%, negative = inhibition) at 1uM” value is reported as 8.75%. For `COC(=O)Nc1cc(C)nc2ccccc12`, the “hERG current change (%, negative = inhibition) at 1uM” value was 12.3%. For `Cc1cccc(OCCn2c(=O)n(C)c3ccccc32)c1`, the “hERG current change (%, negative = inhibition) at 1uM” value was -2.43%. With `CCCn1c(C2CCCN2c2nc(-c3cccc(Br)c3)cs2)nc2ccccc21` (stereo not shown) the “hERG current change (%, negative = inhibition) at 1uM” value was 10.7%. In the case of `COc1ccccc1C(=O)Nc1ccc2c3c(cccc13)CC2`, the “hERG current change (%, negative = inhibition) at 1uM” value is reported as 6.43%. With `CS(=O)(=O)N(CC(=O)Nc1ccc(F)cc1F)C1CCCCC1` the “hERG current change (%, negative = inhibition) at 1uM” value was 7.77%. In the case of `COc1ccc(C2(CNC(C)=O)CCOCC2)cc1OC`, the “hERG current change (%, negative = inhibition) at 1uM” value is reported as 14.3%. With `OCCNc1nnc(-c2ccccc2)c(-c2ccccc2)n1` the “hERG current change (%, negative = inhibition) at 1uM” value was 12.6%. `CCCc1nnc(SCC(=O)N2CCCCC2C)n1CC` (stereo not shown) was tested, and the “hERG current change (%, negative = inhibition) at 1uM” value was 6.21%.
